Measurements: PubChem BioAssay (NCATS)
The shares of active, inactive and inconclusive entries below differ from those in the screen. A potency beside an inconclusive call is a rough fit, not a confirmed value. Calls of active or inactive are those of the source. Calls come from the whole dose curve; as a rule, active = well fitted cell-killing curve with a large enough effect; inconclusive = small, poorly fitted or top-dose-only effect, or effect the other way; inactive = no such curve, though single readings can be large or run the other way.

Key:
[1] = Viability qHTS for spleen associated tyrosine kinase inhibitor (SYKi) naive MV4-11 cells (AID 1963823); conditions: MV4-11 AML viability, CellTiter-Glo luminescence, 72 h; viability (% of control): at 45 µM (top of the series); note: nearly all actives have a fitted effect of over 40% in size
Summary of the method: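 SYKi-naive MV4-11 AML cells, 500 per well, were exposed to library compounds for 72 hr at 37 C, 5% CO2. Viability was then read by CellTiter-Glo luminescence after 10 min at room temperature.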

[2] = Viability qHTS for spleen associated tyrosine kinase inhibitor (SYKi) drug resistant MV4-11 cells (AID 1963824); note: nearly all actives have a fitted effect of over 35% in size
Summary of the method: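 SYK inhibitor-resistant MV4-11 AML cells, 500 per well, added to predispensed compounds and incubated 72 hr at 37 C, 5% CO2. Viability measured by CellTiter-Glo luminescence after 10 min at room temperature.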
Potency is the fitted concentration of half-maximal effect; tags give direction and shape of the fitted curve.

| SMILES | viability (% of control) [1] | viability, % of control [2] | Potency [1] | Potency [2] |
| --- | --- | --- | --- | --- |
| C[C@@H](O)[C@H](N)C(=O)N1CCC[C@H]1C(=O)N1CCC[C@H]1C(=O)N[C@H](C(N)=O)[C@@H](C)O | inactive: 90.2% [at 9.25 µM] | inactive: 81.3% [at 9.25 µM] |  |  |
| Cc1cn(C2C=CC(CO)O2)c(=O)[nH]c1=O (stereo unspecified) |  |  | inconclusive: 13 µM [cytotoxic, partial curve, poor fit] | inconclusive: 20.6 µM [cytotoxic, single point] |
| CC(=O)N[C@H]1[C@H](O[C@H]2CC[C@@]3(C)C(CC[C@]4(C)C3CC=C3C5CC(C)(C)CC[C@]5(C(=O)O)[C@H](O)C[C@]34C)C2(C)C)O[C@H](CO[C@@H]2OC[C@H](O)[C@H](O)[C@H]2O[C@@H]2OC[C@@H](O)[C@H](O)[C@H]2O)[C@@H](O)[C@@H]1O (stereo partly specified) | inactive: 83.2% [at 9.25 µM] | inactive: 113% [at 9.25 µM] |  |  |
| Cc1cc(-c2cnc(N)c3c(-c4ccc5scnc5c4)csc23)n(C)n1 |  |  | active: 1.3 µM | active: 2.59 µM |
| CC1(C)OC(=O)C(OCC2CC2)=C1c1ccc(S(C)(=O)=O)cc1 |  |  | inactive | inactive |
| Cc1ccc(OCCSc2ncccn2)c(Br)c1 |  |  | inactive | inactive |
| CC1(C)CC2C(C1)C1(C)CCC13OC3(CO)C2O (stereo unspecified) |  |  | inconclusive: 6.51 µM [cytotoxic, partial curve, poor fit] | inconclusive: 10.3 µM [cytotoxic, partial curve, poor fit] |
| C[C@@H]1O[C@@H](O[C@@H]2[C@@H](O)[C@H](O[C@H]3CC[C@@]4(C)C(CC[C@]5(C)C4CC=C4[C@@H]6CC(C)(C)CC[C@]6(C(=O)O[C@@H]6O[C@H](CO)[C@@H](O)[C@H](O)[C@H]6O)CC[C@]45C)C3(C)C)O[C@H](C(=O)O)[C@H]2O)[C@H](O)[C@H](O)[C@H]1O (stereo partly specified) | inactive: 80.6% [at 9.25 µM] | inactive: 81.8% [at 9.25 µM] |  |  |
